Consider 89 compounds from publication PMC4336329 (PLoS ONE, 2015).

The whole screen tested about 310,000 compounds, of which about 2,200 (0.71%) showed an effect of 50% or more. The effect is printed as a negative number. The list shows a part of the results.

This assay deals with human ether-à-go-go-related gene (hERG) potassium channel (human, UniProt Q12809). The experiment in a line: primary screen, population patch clamp on CHO cells stably expressing hERG.
Sequence of human ether-à-go-go-related gene (hERG) potassium channel (Q12809 whole entry, looked up): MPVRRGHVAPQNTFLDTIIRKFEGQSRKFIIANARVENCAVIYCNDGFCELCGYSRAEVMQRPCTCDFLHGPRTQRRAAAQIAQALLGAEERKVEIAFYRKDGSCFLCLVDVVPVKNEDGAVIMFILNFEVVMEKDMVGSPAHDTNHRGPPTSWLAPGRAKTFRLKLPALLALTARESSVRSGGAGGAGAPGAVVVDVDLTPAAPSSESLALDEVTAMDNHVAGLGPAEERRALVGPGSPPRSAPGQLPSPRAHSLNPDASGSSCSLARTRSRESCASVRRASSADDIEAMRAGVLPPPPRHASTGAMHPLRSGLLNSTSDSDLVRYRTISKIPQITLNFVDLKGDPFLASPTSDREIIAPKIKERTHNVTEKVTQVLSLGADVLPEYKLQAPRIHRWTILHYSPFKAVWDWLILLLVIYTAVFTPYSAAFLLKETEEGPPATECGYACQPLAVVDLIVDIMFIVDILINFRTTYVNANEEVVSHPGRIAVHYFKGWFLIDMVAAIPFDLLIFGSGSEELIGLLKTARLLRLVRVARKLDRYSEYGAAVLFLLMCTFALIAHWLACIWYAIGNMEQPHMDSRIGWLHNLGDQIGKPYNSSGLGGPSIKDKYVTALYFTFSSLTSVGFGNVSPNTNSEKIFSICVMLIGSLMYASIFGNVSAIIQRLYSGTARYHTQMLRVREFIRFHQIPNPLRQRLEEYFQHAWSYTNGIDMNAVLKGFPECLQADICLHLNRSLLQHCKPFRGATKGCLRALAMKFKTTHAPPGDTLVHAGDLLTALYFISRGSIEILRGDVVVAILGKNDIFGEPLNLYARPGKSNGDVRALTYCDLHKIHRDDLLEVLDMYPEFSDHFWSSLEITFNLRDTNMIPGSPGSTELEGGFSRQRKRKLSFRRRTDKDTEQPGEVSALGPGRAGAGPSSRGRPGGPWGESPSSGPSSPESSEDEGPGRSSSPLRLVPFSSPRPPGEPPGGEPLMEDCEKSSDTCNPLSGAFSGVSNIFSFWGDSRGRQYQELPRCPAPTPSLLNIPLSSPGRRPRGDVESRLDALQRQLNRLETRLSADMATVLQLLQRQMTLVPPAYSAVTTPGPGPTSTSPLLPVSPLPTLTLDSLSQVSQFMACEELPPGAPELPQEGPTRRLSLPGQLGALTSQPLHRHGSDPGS
On to `Cc1noc(C)c1COc1ccccc1C(=O)N(C)CC(=O)Nc1ccc(F)cc1`, for which the “hERG current change (%, negative = inhibition) at 1uM” value was -0.158%.
With `CC(C)(C)c1ccccc1OCCCCN1CCCC1`, the “hERG current change (%, negative = inhibition) at 1uM” value is given as 0.721%.
On to `Cc1cc(C)n2nc(SCC(=O)N(C)c3c(N)n(Cc4ccccc4)c(=O)[nH]c3=O)nc2n1`, for which the “hERG current change (%, negative = inhibition) at 1uM” value is 10.6%.
On to `COc1ccc(N2CCN(C(=O)c3ccc(S(=O)(=O)NCc4ccco4)cc3)CC2)cc1`, for which the “hERG current change (%, negative = inhibition) at 1uM” value is -19%.
With `Nc1c(Cl)cc(-c2csc(N3CCCC3c3nc4cc(Cl)c(Cl)cc4n3CCOCCO)n2)cc1Cl` (centres unmarked), the “hERG current change (%, negative = inhibition) at 1uM” value is on record as 8.36%.
As for `O=C(NCc1ccccc1)NC(=O)c1ccncc1`, the “hERG current change (%, negative = inhibition) at 1uM” value is listed as 7.72%.
Under `COc1ccccc1CSc1nc2ccccc2[nH]1` stands 1.15%; under `COC(=O)C(C)Sc1nc2c(cnn2-c2ccc(F)cc2)c(=O)[nH]1` (centres unmarked), 8.58%; under `Nc1nc(C2CCOCC2)cs1`, 10.5%.
`CC(=O)Nc1ccc(S(=O)(=O)N(Cc2ccco2)Cc2cc3ccccc3[nH]c2=O)cc1`: the “hERG current change (%, negative = inhibition) at 1uM” value worked out at 13.2%.
The figure for `Cc1nc2ccc(NC(=O)N3CCCCC3)cc2s1` is -3.66%; for `O=C(COC(=O)c1cc(Br)ccc1O)NCC1CCCO1` (centres unmarked) it is 1.61%.
The figure for `COc1ccc(CCC(=O)NC(C)C2CCCO2)cc1` (centres unmarked) is 16.6%; for `Cc1cc(C)cc(NC(=O)CCn2c(=O)c3cccn3c3ccccc32)c1` it is 4.83%.
As for `CC(NC(=O)c1ccco1)C(c1cccs1)N1CCOCC1` (centres unmarked), the “hERG current change (%, negative = inhibition) at 1uM” value is 11.1%.
The figure for `Cc1cc(C)n(C2CCCCC2OC(=O)c2ccccc2)n1` (centres unmarked) is 14%; for `Cc1nn(CC(=O)NCCN2CCCCC2C)c(=O)c2cc(-c3ccccc3)nn12` (centres unmarked) it is -10.2%; for `N#C/C(=C(/O)COC(=O)c1ccccc1O)c1nc2ccccc2s1` it is 14.2%.
Consider `Cc1c(N=Cc2ccc(O)c(Br)c2)cccc1[N+](=O)[O-]`, for which the “hERG current change (%, negative = inhibition) at 1uM” value is reported as 9.75%.
The figure for `Cc1cc(C(F)F)n2nc(C(=O)Nc3sc4c(c3C(N)=O)CCC4)nc2n1` is -1.34%; for `CC(NC(=O)CSc1nc2ccc(N)cc2s1)c1ccccc1` (centres unmarked) it is 17.5%; for `Cc1nc2ccccc2n1CCN1CCOCC1.Cl` it is 15.6%.
Under `CCOc1ccc(N=Nc2ccc(O)c3ncccc23)cc1` stands 13.6%; under `O=C(COCc1cc(-c2ccc3c(c2)OCO3)on1)N1CCN(c2ccc(F)cc2)CC1`, 5.28%; under `O=C1OCC/C1=C\c1ccccc1`, 9.22%.
For the compound `O=C(Nc1ccccc1Cl)ON=C1c2ccccc2-c2ccccc21`, the “hERG current change (%, negative = inhibition) at 1uM” value amounted to 7.36%.
The figure for `Cc1c(NC(=O)C(C)n2cc([N+](=O)[O-])cn2)c(=O)n(-c2ccccc2)n1C` (centres unmarked) is 9.47%; for `COc1ccc(C(=O)Nc2ccc(S(=O)(=O)N3CCOCC3)cc2)cc1` it is 10.1%; for `O=C(c1[nH]ncc1[N+](=O)[O-])N1CCOCC1` it is -0.96%.
`Cc1cccc(OCC(=O)Nc2ccc3c(c2)nc2n3CCOC2)c1`: the “hERG current change (%, negative = inhibition) at 1uM” value is on record as -16%.
As for `O=C(Cn1c(=O)oc2ccccc21)NCc1ccco1`, the “hERG current change (%, negative = inhibition) at 1uM” value worked out at 14.5%.
Take `CC(/C=C1\SC(=S)N(NS(=O)(=O)c2ccc(C)cc2)C1=O)=C\c1ccccc1`: the “hERG current change (%, negative = inhibition) at 1uM” value was 9.06%.
On to `COc1ccc(N(CC(O)Cn2cnc3ccccc32)S(=O)(=O)c2ccc(C)cc2)cc1` (centres unmarked), for which the “hERG current change (%, negative = inhibition) at 1uM” value is on record as 3.3%.
Under `Cc1cc(C)cc(NC(=O)[C@H](NC(=O)[C@@H]2Cc3ccccc3CN2)c2ccccc2)c1` stands 13.2%; under `Cc1cc(SC(C)C(=O)Nc2c(C)n(C)n(-c3ccccc3)c2=O)nc2ccccc12` (centres unmarked), 1.58%; under `COC(=O)/C=c1\sc2n(c1=O)C(C)=CC(C)(C)N=2`, 10.8%.
The figure for `CC(=O)c1cccc(NC(=O)c2onc(C)c2Cl)c1` is 11.9%; for `N#Cc1cc(-c2ccccc2)nc(NN)n1` it is 7.92%; for `CCc1ccc(NC(=S)Nc2ccc3[nH]c(=O)[nH]c3c2)cc1` it is 13.1%.
The figure for `CC(=O)Nc1ccc(Br)cc1C(=O)C(=O)O` is 6.06%.
Take `Cc1[nH]c(=S)[nH]c(=O)c1CCC1OCCO1`: the “hERG current change (%, negative = inhibition) at 1uM” value is 6.66%.
Take `CCOc1ccc(C(=O)Nc2ccc(NC(=O)c3ccco3)c(Cl)c2)cc1Br`: the “hERG current change (%, negative = inhibition) at 1uM” value was determined as 13.2%.
The figure for `CN(CC(=O)Nc1cccc(F)c1)C(=O)/C=C/c1cn(Cc2ccccc2)nc1-c1cccnc1` is 4.79%; for `CCOC(=O)C1=C(COC(=O)c2ccc(OC(C)C)cc2)NC(=O)NC1C` (centres unmarked) it is 17.4%; for `O=C(Cn1cnc2c(cnn2-c2ccc(F)cc2)c1=O)N1CCN(c2ccccc2F)CC1` it is -12.4%.
The figure for `S=c1[nH]nc(/C=C/c2ccccc2)o1` is 17.2%; for `Cc1ccc(C(=O)Nc2nnc(C3CCCCC3)s2)o1` it is 12.8%; for `CC(=O)Nc1ccc(NC(=O)C2CC(=O)Nc3nc4ccccc4n32)cc1` (centres unmarked) it is 15.6%.
Under `Cc1nn(Cc2ccccc2)c(C)c1NC(=O)CSc1nnc(-c2cc(Cl)ccc2O)n1C` stands 9.67%; under `COc1ccc(Cl)cc1NS(=O)(=O)c1cccc(C(=O)N2CC(C)OC(C)C2)c1` (centres unmarked), 4.46%; under `Cc1cc(OCC(=O)Nc2ccc(CN3CCOCC3)cc2)c2c(C)c(C)c(=O)oc2c1`, 17.7%.
For `Cc1cc(C)cc(NC(=O)C(=O)NCCc2c[nH]c3ccccc23)c1`, the “hERG current change (%, negative = inhibition) at 1uM” value was 12.2%.
Under `C=CCn1c(COc2ccc(Cl)cc2)nnc1SCC(=O)N/N=C/c1ccccc1` stands 3.45%; under `COc1cccc(NC(=O)CN(C)C(=O)CCCc2nc3ccccc3s2)c1`, 4.25%; under `Cc1ccc(NC(=O)c2cc(-c3ccccc3)nn2-c2ccccc2)cc1`, 13.7%.
The figure for `CC(C)(C)c1nc2ccccc2c(=O)n1N1C(=O)c2ccccc2C1=O` is 11.7%; for `Cc1cc2ccccc2n1CCNC(=O)c1ccc(S(=O)(=O)N2CCCCC2)cc1` it is 14.8%.
The figure for `CCC[C@@H]1CCCO[C@@](C(=O)NCc2ccccn2)(C(F)(F)F)C1` is 17.2%; for `CCc1nn(CC(=O)N2CCN(CC)CC2)c(=O)c2cc3sccc3n12` it is 9.14%; for `COc1ccc(CCNC(=O)Cc2c(Cl)cccc2Cl)cc1` it is 2.42%.
Regarding `Cc1ccc(SCCC(=O)Nc2cccc(N(C)S(C)(=O)=O)c2)cc1`, the “hERG current change (%, negative = inhibition) at 1uM” value is on record as 1.09%.
Under `Cl.Fc1ccccc1C(c1nnnn1C1CCCC1)N1CCN(Cc2ccccc2)CC1` (centres unmarked) stands 12.9%; under `Cl.OC(c1ccccc1)C(CN1CCOCC1)c1ccccc1` (centres unmarked), 4.4%; under `COc1cc(C(=O)NCc2ccc(OCCN(C)C)cc2)cc(OC)c1OC.Cl`, 14.2%.
In the case of `O=C(NC(=S)Nc1c(Cl)ccc2nsnc12)c1ccccc1F`, the “hERG current change (%, negative = inhibition) at 1uM” value was 12.2%.
Under `CCn1ncc(S(=O)(=O)Nc2cccnc2)c1C` stands 5.96%; under `COc1ccc(Cl)cc1NC(=O)Cn1nc(-c2ccc(C)cc2)n(C)c1=S`, 1.97%.
As for `O=C(O)CCS(=O)(=O)Cc1ccccc1F`, the “hERG current change (%, negative = inhibition) at 1uM” value is listed as 13.3%.
Turning to `C[C@H](NC(=O)OC(C)(C)C)c1nnc(SCC(=O)Nc2ccc(Br)cc2)o1`, the “hERG current change (%, negative = inhibition) at 1uM” value came out at 6.61%.
Under `Cc1cc(=O)oc2cc(OCCC[n+]3ccccc3)ccc12.[Br-]` stands 8.16%; under `CCn1cc(CN2CCCC(CNS(=O)(=O)c3cccc4cccnc34)C2)cn1` (centres unmarked), 14.7%; under `COc1ccc(-c2cn[nH]c2-c2ccc(OC)cc2O)cc1`, -0.931%.
The figure for `O=C(C[n+]1ccccc1)Nc1ccccc1Br.[Cl-]` is 18.1%.
Under `CCCN(CCC)c1nc2ccccc2nc1C(C#N)C(=O)OCCOC` (centres unmarked) stands 5.6%; under `Cc1cc(NC(=O)CCc2ccccc2)c([N+](=O)[O-])cc1C`, -0.405%; under `CN(C(=O)COc1ccc(Cl)cc1Cl)C1(C)CCS(=O)(=O)C1` (centres unmarked), 0.854%.
With `Cc1cc(/C=C2\C(=N)N3N=C(CC(=O)N4CCOCC4)SC3=NC2=O)c(C)n1-c1ccccc1`, the “hERG current change (%, negative = inhibition) at 1uM” value is on record as 7.83%.
Under `COc1ccc(N2CC(C(=O)Nc3ccc([N+](=O)[O-])cc3Br)CC2=O)cc1` (centres unmarked) stands -43.6%.
`CN(C)C(=S)SCC(=O)NCc1ccc(F)cc1`: the “hERG current change (%, negative = inhibition) at 1uM” value was 11.7%.
Turning to `COc1ccc(C2(c3ccc(OC)cc3)NC(=O)N(CC(=O)NCC(F)(F)F)C2=O)cc1`, the “hERG current change (%, negative = inhibition) at 1uM” value is recorded as 6.68%.
The figure for `Cc1cccc(NC(c2ccc(C)s2)c2ccc3ccc(C)nc3c2O)n1` (centres unmarked) is 17.5%; for `Cc1ccc([N+](=O)[O-])cc1NCC(=O)NN` it is 3.27%; for `CCOC(=O)Cc1cc(=O)n2[nH]c(C)c(-c3ccc(Cl)cc3)c2n1` it is 13%.
For the compound `Nc1nc2c3ccccc3nc(Cc3ccccc3)n2n1`, the “hERG current change (%, negative = inhibition) at 1uM” value is 14.2%.
Under `COc1ccc(C(=O)CSc2nc3c(c(=O)n(C)c(=O)n3C)n2C)cc1` stands 7.22%.
For `COCc1cc(C)nc(OCC(=O)N/N=C/c2ccc(-c3cccc([N+](=O)[O-])c3)o2)c1C#N`, the “hERG current change (%, negative = inhibition) at 1uM” value was 4.04%.
On to `CN1CCCC(OC(=O)c2ccccc2Br)C1.Cl` (centres unmarked), for which the “hERG current change (%, negative = inhibition) at 1uM” value is 14.3%.
Under `C=CCc1ccccc1Oc1cc(F)nc(N)n1` stands 10.4%; under `COC(=O)c1cccc(C(=O)N2CCCC(Nc3ccc4c(c3)OCCO4)C2)c1` (centres unmarked), 2.38%.
